{"source": "patent US20260374838", "about": "(published 2026)", "binders": {"B1": {"name": "ARQ-234 (antibody)", "chain": "QVQVVTQDEREQLYTPASLKCSLQNAQEALIVTWQKKKAVSPENMVTFSENHGVVIQPAYKDKINITQLGLQNSTITFWNITLEDEGCYMCLFNTFGFGYYSGTACLTVYVQPIVSLHYKFSEDHLNITCSATARPAPMVFWKVPRSGIENSTVTLSHPNGTTSVTSILHIKDPKNQVGKEVICQVLHLGTVTDFKQTVNKGPP[human IgG4 Fc with changes not printed]"}}, "target": "T1, human CD200R (human, UniProt Q8TD46)", "T1 chain": "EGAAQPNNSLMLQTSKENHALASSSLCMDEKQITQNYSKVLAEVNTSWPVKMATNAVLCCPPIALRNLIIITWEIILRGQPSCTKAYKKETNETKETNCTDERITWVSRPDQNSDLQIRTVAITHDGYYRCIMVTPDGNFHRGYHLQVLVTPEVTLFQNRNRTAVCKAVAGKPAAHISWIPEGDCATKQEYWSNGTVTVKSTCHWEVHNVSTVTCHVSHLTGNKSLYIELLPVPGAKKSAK", "test": "SPR, 25C"}
{"binder": "B1", "values": [{"measurement": "Kd", "result": 2.11, "unit": "nM"}]}
